According to the GPR68 mutational scans of Howard et al. (2025):
Scores with a large standard error are left out. The source holds two more conditions with little spread; they are left out. Read del as a deletion of the residues named and ins as an insertion between two positions. For part of these data: The data file names ogerin without a concentration.

B1: GPR68, Q15743 (parent)
chain: MGNITADNSSMSCTIDHTIHQTLAPVVYVTVLVVGFPANCLSLYFGYLQIKARNELGVYLCNLTVADLFYICSLPFWLQYVLQHDNWSHGDLSCQVCGILLYENIYISVGFLCCISVDRYLAVAHPFRFHQFRTLKAAVGVSVVIWAKELLTSIYFLMHEEVIEDENQHRVCFEHYPIQAWQRAINYYRFLVGFLFPICLLLASYQGILRAVRRSHGTQKSRKDQIQRLVLSTVVIFLACFLPYHVLLLVRSVWEASCDFAKGVFNAYHFSLLLTSFNCVADPVLYCFVSETTHRDLARLRGACLAFLTCSRTGRAREAYPLGAPEASGKSGAQGEEPELLTKLHPAFQTPNSPGSGGFPTGRLA

How the values were obtained:
[1] = variants of: B1; experiment: cAMP reporter score (Enrich2 score, wild type = 0); higher = more signal; HEK293T, FACS bins
[2] = variants of: B1; experiment: surface expression score (Enrich2 score, wild type = 0); higher = more signal; HEK293T, FACS bins

| Variant | cAMP reporter score ([1]; pH 5.5) | cAMP reporter score ([1]; pH 6, modulator: ogerin) | cAMP reporter score ([1]; pH 6.5, modulator: ogerin) | cAMP reporter score ([1]; pH 6) | surface expression score [2] |
| --- | --- | --- | --- | --- | --- |
| I107E | -1.72 | -0.299 | -1.93 |  |  |
| I107F | -0.77 |  | -0.398 | -1.17 | -2.43 |
| I107H | -0.482 |  | -0.431 | 0.072 | -0.385 |
| I107K | 0.565 | -1.28 | -1.35 |  |  |
| I107L | -0.604 | -1.26 | -1.49 | -1.65 | -0.859 |
| I107M | -0.547 | -1.6 | -1.08 | -0.898 | -0.444 |
| I107N | 0.196 | -1.53 | -1.52 | 0.562 | -1.4 |
| I107P | -0.41 | -0.653 | -0.431 | -0.673 | -1.44 |
| I107Q | -1.32 | -2 | -1.62 | -1.85 | -3.01 |
| I107R | -1.06 |  | -0.386 | -0.617 | -2.58 |
| I107S | -1.05 | 0.894 |  |  | -2.42 |
| I107V | -0.482 |  | -0.426 |  |  |
| I107W | -0.508 |  | -1.61 |  | -3.56 |
| I107Y | -1.57 | -1.06 | -0.616 |  | -2.72 |
| I107_V109del | -1.62 | -0.698 | -0.896 | -0.919 | -2.24 |
| S108_G110del | -1.92 | -1.67 | -1.02 | -0.741 | -2.1 |
| S108del | -1.7 | -1.33 | -1.01 | -0.981 | -1.86 |
| V109A | -1.08 | -1.5 | -0.672 | 0.237 | 0.174 |
| V109C | -0.35 | -0.344 | 0.096 | -1.4 | -0.049 |
| V109E | -0.807 | -3.03 | -0.152 |  | -3.54 |
| V109F | -2.04 |  | -1.16 |  | -2.28 |
| V109G | -1.19 | -1.26 |  |  |  |
| V109I | -0.421 | -0.598 | 0.553 | 2.18 | -0.818 |

| Variant | cAMP reporter score ([1]; pH 5.5) | cAMP reporter score ([1]; pH 6, modulator: ogerin) | cAMP reporter score ([1]; pH 6.5, modulator: ogerin) | cAMP reporter score ([1]; pH 6) | surface expression score [2] |
| --- | --- | --- | --- | --- | --- |
| V109K | -1.16 |  | 0.208 | -1.51 | -3.28 |
| V109L | 0.37 | -0.059 | -0.595 | 0.853 | -1.37 |
| V109M | -0.58 | -0.611 | -0.634 | 0.148 | -0.568 |
| V109N | -1.14 | -1.67 | -1.48 | -0.476 | -1.09 |
| V109P | -1.42 | -1.77 | -0.238 | -0.875 | -2.82 |
| V109Q | -0.112 | -0.814 |  | -0.428 | -1.37 |
| V109R | -1.99 | -1.87 | -1.25 | -1.32 | -3.18 |
| V109S | -0.818 | -1.25 | -1.32 | -0.591 | -0.426 |
| V109T | -0.457 | 0.094 | 0.285 | -0.723 | 0.324 |
| V109W | -1.51 | -1.76 | -1.38 | -1.04 | -2.91 |
| V109Y | -0.397 | -1.68 | -0.439 |  |  |
| G110_F111insGS | -0.182 | -3.17 |  | -0.648 |  |
| L112_C113del | -1.59 |  | -1.39 |  | -2.65 |
| L112_C113insG | -1.39 | -2 | -1.82 | -0.949 | -1.91 |
| L112_C113insGSG | -2.35 | -2.07 | -1.42 |  | -0.841 |
| C113_I115del | -2.05 | -2.03 | -1.46 | -1.54 | -2.91 |
| I115_S116insG | -1.23 |  | -1.05 |  | -2.4 |
| I115_S116insGSG | -1.66 | -0.924 | -1.11 | -2.15 | -2.24 |
| S116_D118del | -1.96 | -1.68 | -1.34 | -1.32 | -2.52 |
| S116_V117insGS | -2.12 | -1.55 | -2.22 | -1.61 |  |
| V117_D118insGSG | -0.482 |  |  | -0.244 |  |
| D118A | -0.421 |  | -0.409 |  | -0.41 |
| D118E | 0.368 | -0.623 | -1.98 | -1.19 | -2.6 |

| Variant | cAMP reporter score ([1]; pH 5.5) | cAMP reporter score ([1]; pH 6, modulator: ogerin) | cAMP reporter score ([1]; pH 6.5, modulator: ogerin) | cAMP reporter score ([1]; pH 6) | surface expression score [2] |
| --- | --- | --- | --- | --- | --- |
| D118F | -2.13 | 0.081 | -0.602 | -0.181 | -1.97 |
| D118H | -0.421 |  | -0.44 | -0.589 |  |
| D118I | -0.408 | -0.497 |  | -0.534 |  |
| D118K | -1.37 |  |  | -0.818 |  |
| D118L | 0.237 | 0.661 | 2.75 | 3.72 | -2.61 |
| D118M | -0.755 | 0.277 | -0.671 | 1.57 | -2.91 |
| D118N | -0.667 | 0.222 | 0.188 | 2.92 | 1.13 |
| D118R | -1.92 |  | -2.33 | -0.713 | -1.69 |
| D118S | 2.11 | 3.11 | 3.29 |  | -0.37 |
| D118W | -0.561 | -1.2 | -0.591 | 0.164 | -2.81 |
| D118Y | -0.406 | -3.56 | -0.436 | -0.702 |  |
| D118_R119insGSG | -1.7 |  | -2.81 | -1.31 | -2.04 |
| R119A | -0.248 | -0.958 | -2.22 | -0.76 | 0.683 |
| R119C | -1.26 | -1.4 | -1.19 | -1.08 | -0.514 |
| R119D | -1.56 |  | -0.223 | -1.19 |  |
| R119E | -0.56 |  | -0.194 | -0.67 | -1.19 |
| R119F | -0.413 | -0.543 | -0.524 | -0.679 | -1.42 |
| R119G | -0.485 | -1.52 | -0.393 | -0.235 | 0.17 |
| R119H | -1.05 | -1.85 |  | -1.79 |  |
| R119I | -1.32 | -2.3 | -0.864 | -0.968 | -0.407 |
| R119K | 0.703 | -0.38 | -0.866 | -0.153 | -1.15 |
| R119L | -1.39 | -1.14 | -0.876 | -0.14 | -1.41 |
| R119M | -1.17 | -1.71 | -1.04 | -0.605 | -0.317 |
